Test results as given in PubChem BioAssay AID214 (DTP/NCI, 2004).
Inconclusive results are not listed. Not every entry of the source has a single result; some have several. Only these are listed. The source may hold further records. The records of an entry are repeats across runs, samples, wells, individuals or studies. Signs of the kind (2×) say how often a value occurs here.

System: B6C3F1 mice, colon carcinoma 38 s.c., T/C
Experiment: NCI In Vivo Anticancer Drug Screen. Data for tumor model Colon Carcinoma 38 (subcutaneous) in B6C3F1 mice
Conditions: endpoint: median tumor weight (est.), higher = larger tumour
Protocol: The antitumor activity of compounds was measured in mice bearing transplantable tumors. Survival or tumor size were measured and the results are expressed as the measurement made in the treated group (T) divided by the measurement made in the vehicle treated control group (C). The tumor model used in this assay is Colon Carcinoma 38 (subcutaneous) in B6C3F1 mice

[1] = dose: 25.0 mg/kg/injection, schedule: Q07DX002 (ip), vehicle: Klucel (hydroxypropylcellulose) (HPC)
[2] = dose: 50.0 mg/kg/injection, schedule: Q07DX002 (ip), vehicle: Klucel (hydroxypropylcellulose) (HPC)
[3] = dose: 200.0 mg/kg/injection, schedule: Q07DX002 (ip), vehicle: Klucel (hydroxypropylcellulose) (HPC)

Question: `N[C@@H](Cc1ccc(N(CCCl)CCCl)cc1)C(=O)O` was tested. Which T/C (dose: 2.5 mg/kg/injection, schedule: Q07DX002 (ip), vehicle: suspension in saline) did it give?
Answer: Its T/C is 58 % of control, 59 % of control, 90 % of control.

Question: What about the T/C (dose: 5.0 mg/kg/injection, schedule: Q07DX002 (ip), vehicle: suspension in saline) of the same compound?
Answer: The T/C was 27 % of control, 89 % of control, 111 % of control.

Question: And the T/C (dose: 10.0 mg/kg/injection, schedule: Q07DX002 (ip), vehicle: suspension in saline)?
Answer: Its T/C is 15 % of control and 50 % of control.

Question: With `CCN(CC)CCOC(=O)Cc1cccc2c(=O)cc(-c3ccccc3)oc12` as the compound, how does the T/C (dose: 15.82 mg/kg/injection, schedule: Q01DX001 (iv), vehicle: saline) read?
Answer: Its T/C is 56 % of control and 100 % of control.

Question: What about the T/C (dose: 15.82 mg/kg/injection, schedule: Q07DX002 (iv), vehicle: saline) of the same compound?
Answer: The T/C was 36 % of control and 109 % of control.

Question: And the T/C (dose: 21.09 mg/kg/injection, schedule: Q01DX001 (iv), vehicle: saline)?
Answer: The T/C was 74 % of control and 155 % of control.

Question: And the T/C (dose: 28.13 mg/kg/injection, schedule: Q07DX002 (iv), vehicle: saline)?
Answer: The T/C was 69 % of control and 280 % of control.

Question: And the T/C (dose: 37.5 mg/kg/injection, schedule: Q07DX002 (iv), vehicle: saline)?
Answer: Its T/C is 63 % of control and 212 % of control.

Question: And the T/C (dose: 112.5 mg/kg/injection, schedule: Q01DX001 (ip), vehicle: saline)?
Answer: The T/C was 34 % of control and 74 % of control.

Question: What about the T/C (dose: 112.5 mg/kg/injection, schedule: Q07DX002 (ip), vehicle: saline) of the same compound?
Answer: The T/C was 54 % of control, 62 % of control, 87 % of control.

Question: And the T/C (dose: 150.0 mg/kg/injection, schedule: Q01DX001 (ip), vehicle: saline)?
Answer: Its T/C is 35 % of control and 88 % of control.

Question: And the T/C (dose: 150.0 mg/kg/injection, schedule: Q07DX002 (ip), vehicle: saline)?
Answer: Its T/C is 8 % of control, 10 % of control, 35 % of control.

Question: How did the T/C (dose: 12.5 mg/kg/injection, schedule: Q07DX002 (ip), vehicle: other) turn out when `C[C@@](O)(/C=C/[C@H]1CC=CC(=O)O1)[C@@H](C[C@@H](O)\C=C/C=C\C=C\CO)OP(=O)(O)O` was run?
Answer: Its T/C is 33 % of control and 120 % of control.

Question: And the T/C (dose: 25.0 mg/kg/injection, schedule: Q07DX002 (ip), vehicle: other)?
Answer: The T/C was 93 % of control and 150 % of control.

Question: What does the source list for `O=C(O)Cc1cccc2c(=O)cc(-c3ccccc3)oc12`?
Answer: T/C (dose: 200.0 mg/kg/injection, schedule: Q07DX002 (iv), vehicle: sodium bicarbonate): 7 % of control and 107 % of control; T/C (dose: 267.0 mg/kg/injection, schedule: Q07DX002 (ip), vehicle: sodium bicarbonate): 43 % of control and 108 % of control; T/C (dose: 356.0 mg/kg/injection, schedule: Q07DX002 (ip), vehicle: sodium bicarbonate): 4 % of control and 91 % of control

Question: For `O=C(CCCCCCC(=O)ON1C(=O)CCC1=O)ON1C(=O)CCC1=O`, which T/C (dose: 50.0 mg/kg/injection, schedule: Q07DX002 (ip), vehicle: saline with Tween-80) is on record?
Answer: The T/C was 68 % of control and 120 % of control.

Question: What about the T/C (dose: 100.0 mg/kg/injection, schedule: Q07DX002 (ip), vehicle: saline with Tween-80) of the same compound?
Answer: Its T/C is 44 % of control and 120 % of control.

Question: What does the source list for `Nc1nc(-c2ccccc2)c(Br)c(=O)[nH]1`?
Answer: T/C (dose: 800.0 mg/kg/injection, schedule: Q07DX002 (ip), vehicle: saline with Tween-80): 88 % of control and 170 % of control; T/C (dose: 1600.0 mg/kg/injection, schedule: Q07DX002 (ip), vehicle: saline with Tween-80): 46 % of control and 87 % of control; T/C (dose: 3200.0 mg/kg/injection, schedule: Q07DX002 (ip), vehicle: saline with Tween-80): 59 % of control and 114 % of control

Question: How did the T/C (dose: 800.0 mg/kg/injection, schedule: Q07DX002 (ip), vehicle: Klucel (hydroxypropylcellulose) (HPC)) turn out when `Cn1cc(C2NC(=O)c3ccccc3N2)c2ccccc21` (stereo not drawn) was run?
Answer: Its T/C is 101 % of control and 178 % of control.

Question: Which results are given for `NC(CCl)=NCC12CC3CC(CC(C3)C1)C2`?
Answer: T/C [1]: 87 % of control and 124 % of control; T/C [2]: 114 % of control and 166 % of control

Question: Which T/C (dose: 75.0 mg/kg/injection, schedule: Q07DX002 (ip), vehicle: saline with Tween-80) does the source give for `COc1ccc2cc1Oc1ccc(cc1)C[C@H]1c3cc(c(OC)cc3CCN1C)Oc1c(OC)c(OC)cc3c1[C@H](C2)N(C)CC3` here?
Answer: The T/C was 103 % of control and 159 % of control.

Question: `Nc1ccc2c(c1)CN1C(=O)c3ccccc3C1=N2` was tested. Which T/C (dose: 50.0 mg/kg/injection, schedule: Q07DX002 (ip), vehicle: other) did it give?
Answer: Its T/C is 28 % of control and 89 % of control.

Question: Which T/C [3] does the source give for `Cc1ccc(NCCN(C)C)c2c(=O)c3cc(O)ccc3sc12` here?
Answer: The T/C was 32 % of control and 106 % of control.

Question: `CCC(C(=O)O)C(=O)O.[NH2-].[NH2-].[Pt+2]` was tested. Which T/C (dose: 50.0 mg/kg/injection, schedule: Q07DX002 (ip), vehicle: saline) did it give?
Answer: Its T/C is 41 % of control, 100 % of control, 102 % of control.

Question: And the T/C (dose: 100.0 mg/kg/injection, schedule: Q07DX002 (ip), vehicle: saline)?
Answer: The T/C was 22 % of control, 76 % of control, 78 % of control.

Question: For `Cc1cc(Nc2ccc3c(c2)OCO3)c2cc3c(cc2n1)OCO3`, which T/C [1] is on record?
Answer: Its T/C is 41 % of control and 88 % of control (2×).

Question: And the T/C [3]?
Answer: Its T/C is 51 % of control and 123 % of control.

Question: How did the T/C (dose: 25.0 mg/kg/injection, schedule: Q07DX002 (ip), vehicle: water) turn out when `Cn1c(=O)[nH]c2nncnc2c1=O` was run?
Answer: Its T/C is 122 % of control and 158 % of control.

Question: For `O=NN(CCF)C(=O)NC1CCCCC1`, which T/C [2] is on record?
Answer: The T/C was 2 % of control and 44 % of control.

Question: For `O=C(CCBr)N1CCN(C(=O)CCBr)CC1`, which T/C (dose: 160.0 mg/kg/injection, schedule: Q07DX002 (ip), vehicle: saline with Tween-80) is on record?
Answer: Its T/C is 12 % of control, 25 % of control, 40 % of control.

Question: For `CO[C@@]12[C@H](COC(N)=O)C3=C(C(=O)C(C)=C(N)C3=O)N1C[C@@H]1N[C@@H]12`, which T/C (dose: 1.0 mg/kg/injection, schedule: Q07DX002 (ip), vehicle: saline) is on record?
Answer: The T/C was 21 % of control, 85 % of control, 107 % of control.

Question: What about the T/C (dose: 2.0 mg/kg/injection, schedule: Q07DX002 (ip), vehicle: saline) of the same compound?
Answer: Its T/C is 39 % of control, 49 % of control, 68 % of control.

Question: For `C[n+]1c(-c2cccc(OCCOCCOc3cccc(-c4c5cc(N)ccc5c5ccc(N)cc5[n+]4C)c3)c2)c2cc(N)ccc2c2ccc(N)cc21`, which T/C (dose: 32.0 mg/kg/injection, schedule: Q07DX002 (ip), vehicle: water) is on record?
Answer: The T/C was 36 % of control and 85 % of control.
